Measured values reported in patent US20230053119A1, “FUSION POLYPEPTIDE COMPRISING Fc REGION OF IMMUNOGLOBULIN AND GDF15” (LG CHEM, LTD., priority 2019, published 2023).

Key:
Type in all cases: in vivo
[1] = tested on: DIO mouse model (C57BL/6J-DIO); assay: Weight change in DIO mice after IgG4-GDF / IgG4-GDF(CRL) administration
Procedure: (§1) The pharmacological effect of the fusion polypeptide produced and purified in Example 1 was tested in mice (C57BL/6J, 6 weeks, male, 100 mice; RaonBio).
The test materials (IgG4-GDF ? GDF IgG4-GDF(CRL)) and control material
(§2) Semaglutide (Bachem) were subcutaneously administered. The dose of all the control material and test materials was 5 mL/kg, and the dose by individual was calculated on the basis of the recently measured weight, […] (1 mL). […] For a comparison group in which Semaglutide was administered, Semaglutide were administered every day once a day. All administrations were progressed from 9 AM.
The weight of each mouse was measured at the day of the start of administration of the test materials (before administration), and then the weight was measured every day (measured by 19 days at maximum). The dose of the test materials was determined on the basis of the most recently measured weight.

[2] = tested on: DIO mouse model (C57BL/6J-DIO); assay: Feed intake in DIO mice after IgG4-GDF / IgG4-GDF(CRL) administration
Procedure: as §1, §2
In addition, after administering the test materials to mice, the feed intake was measured every day, and the amount of feeding was measured using an electronic scale by each breeding box, and then the residual amount was measured to calculate the feed intake a day. Individuals who severely ate the feed were excluded from the measurement.

[3] = Pharmacodynamic (PK) test in SD rat, serum concentration by Human GDF15 ELISA; conditions: 2 mg/kg subcutaneous
Procedure: For evaluation of pharmacodynamic characteristics when each polypeptide was subcutaneously administered to rats, polypeptide IgG4-GDF or IgG4-GDF(CRL) was subcutaneously administered in an amount of 2 mg/kg, respectively, to SD Rat (Koatech, male, 7 weeks, about 250g; n=3 each; test group), and at a fixed time, blood was collected about […] through a caudal vein. Blood collecting was progressed before administration of the fusion polypeptide, in 1, 2, 4, 8, 24, 48, 72, 96, 168, 240 and 336 hours after administration. As a control group for comparison of pharmacodynamic characteristics, GDF15 (R&D Systems) was subcutaneously administered in an amount of 2 mg/kg by the same method as above to prepare GDF15 administration group.
After administering to SD Rat as above, blood collected by time-point was centrifuged to obtain serum, and ELISA was performed using Human GDF15 Immunoassay (SGD150, R&D Systems), to measure the concentration in serum over time for each polypeptide.

[4] = 1 nmol/kg s.c. Single Inj., Day 0
[5] = 1 nmol/kg s.c. Single Inj., Day 1
[6] = 1 nmol/kg s.c. Single Inj., Day 2
[7] = 1 nmol/kg s.c. Single Inj., Day 3
[8] = 1 nmol/kg s.c. Single Inj., Day 4
[9] = 1 nmol/kg s.c. Single Inj., Day 5
[10] = 1 nmol/kg s.c. Single Inj., Day 6
[11] = 1 nmol/kg s.c. Single Inj., Day 7
[12] = 1 nmol/kg s.c. Single Inj., Day 8
[13] = 1 nmol/kg s.c. Single Inj., Day 9
[14] = 1 nmol/kg s.c. Single Inj., Day 10
[15] = 1 nmol/kg s.c. Single Inj., Day 11
[16] = 1 nmol/kg s.c. Single Inj., Day 12
[17] = 1 nmol/kg s.c. Single Inj., Day 13
[18] = 1 nmol/kg s.c. Single Inj., Day 14
[19] = 1 nmol/kg s.c. Single Inj., Day 15
[20] = 1 nmol/kg s.c. Single Inj., Day 16
[21] = 1 nmol/kg s.c. Single Inj., Day 17
[22] = 1 nmol/kg s.c. Single Inj., Day 18
[23] = 1 nmol/kg s.c. Single Inj., Day 19
[24] = 10 nmol/kg s.c. Single Inj., Day 0
[25] = 10 nmol/kg s.c. Single Inj., Day 1
[26] = 10 nmol/kg s.c. Single Inj., Day 2
[27] = 10 nmol/kg s.c. Single Inj., Day 3
[28] = 10 nmol/kg s.c. Single Inj., Day 4
[29] = 10 nmol/kg s.c. Single Inj., Day 5
[30] = 10 nmol/kg s.c. Single Inj., Day 6
[31] = 10 nmol/kg s.c. Single Inj., Day 7
[32] = 10 nmol/kg s.c. Single Inj., Day 8
[33] = 10 nmol/kg s.c. Single Inj., Day 9
[34] = 10 nmol/kg s.c. Single Inj., Day 10
[35] = 10 nmol/kg s.c. Single Inj., Day 11
[36] = 10 nmol/kg s.c. Single Inj., Day 12
[37] = 10 nmol/kg s.c. Single Inj., Day 13
[38] = 10 nmol/kg s.c. Single Inj., Day 14
[39] = 10 nmol/kg s.c. Single Inj., Day 15
[40] = 10 nmol/kg s.c. Single Inj., Day 16
[41] = 10 nmol/kg s.c. Single Inj., Day 17
[42] = 10 nmol/kg s.c. Single Inj., Day 18
[43] = 10 nmol/kg s.c. Single Inj., Day 19

B1: IgG4-GDF(CRL): fusion polypeptide: mutated IgG4 Fc CH2-CH3 not comprising hinge (SEQ ID NO: 7)-GS linker (SEQ ID NO: 18)-GDF(CRL) (SEQ ID NO: 2) (protein)
chain: [omitted - human IgG4 Fc with F234A L235A (EU numbers)]GGGGSGGGGSGGGGSGGGGSCRLHTVRASLEDLGWADWVLSPREVQVTMCIGACPSQFRAANMHAQIKTSLHRLKPDTVPAPCCVPASYNPMVLIQKTDTGVSLQTYDDLLAKDCHCI
modifications: Synthetic_human IgG4-Fc (UniProtKB P01861) CH2-CH3 (mutated); Synthetic_peptide linker; Synthetic_DeltaN14GDF15
For B1, the “duration of weight loss effect” value ([1]; 1 nmol/kg administered once) was “up to 10 days”, the “Body Weight, Mean” value [1, 4] was 100 % of initial and the “Body Weight, Mean” value [1, 5] was 99 % of initial. The “Body Weight, Mean” value [1, 6] was 98 % of initial, the “Body Weight, Mean” value [1, 7] was 97 % of initial and the “Body Weight, Mean” value [1, 8] was 96 % of initial. The “Body Weight, Mean” value [1, 9] was 95 % of initial, the “Body Weight, Mean” value [1, 10] was 94 % of initial and the “Body Weight, Mean” value [1, 11] was 93 % of initial. For the same molecule, the “Body Weight, Mean” value [1, 12] was 92 % of initial, the “Body Weight, Mean” value [1, 13] was 92 % of initial and the “Body Weight, Mean” value [1, 14] was 91 % of initial. The “Body Weight, Mean” value [1, 15] was 91 % of initial, the “Body Weight, Mean” value [1, 16] was 91 % of initial and the “Body Weight, Mean” value [1, 17] was 91 % of initial. For the same molecule, the “Body Weight, Mean” value [1, 18] was 91 % of initial, the “Body Weight, Mean” value [1, 19] was 91 % of initial and the “Body Weight, Mean” value [1, 20] was 91 % of initial. For the same molecule, the “Body Weight, Mean” value [1, 21] was 92 % of initial, the “Body Weight, Mean” value [1, 22] was 92 % of initial and the “Body Weight, Mean” value [1, 23] was 92 % of initial. For the same molecule, the “duration of weight loss effect” value ([1]; 10 nmol/kg administered once) was “up to 15 days”, the “Body Weight, Mean” value [1, 24] was 100 % of initial and the “Body Weight, Mean” value [1, 25] was 98 % of initial. For the same molecule, the “Body Weight, Mean” value [1, 26] was 97 % of initial, the “Body Weight, Mean” value [1, 27] was 95 % of initial and the “Body Weight, Mean” value [1, 28] was 94 % of initial. The “Body Weight, Mean” value [1, 29] was 92 % of initial, the “Body Weight, Mean” value [1, 30] was 91 % of initial and the “Body Weight, Mean” value [1, 31] was 90 % of initial. The “Body Weight, Mean” value [1, 32] was 88 % of initial, the “Body Weight, Mean” value [1, 33] was 87 % of initial and the “Body Weight, Mean” value [1, 34] was 85 % of initial. The “Body Weight, Mean” value [1, 35] was 85 % of initial, the “Body Weight, Mean” value [1, 36] was 84 % of initial and the “Body Weight, Mean” value [1, 37] was 83 % of initial. For the same molecule, the “Body Weight, Mean” value [1, 38] was 83 % of initial, the “Body Weight, Mean” value [1, 39] was 82 % of initial and the “Body Weight, Mean” value [1, 40] was 83 % of initial. The “Body Weight, Mean” value [1, 41] was 84 % of initial, the “Body Weight, Mean” value [1, 42] was 84 % of initial and the “Body Weight, Mean” value [1, 43] was 85 % of initial. For the same molecule, the “weight loss effect at the same dose compared to the GDF (CRL) fusion polypeptide with Fc (Mutated) of IgG4 comprising Hinge (in words)” value ([1]; same dose) was “excellent weight loss effect”, the “Feed intake a day, Mean” value [2, 4] was 3.3 and the “Feed intake a day, Mean” value [2, 5] was 2.0. For the same molecule, the “Feed intake a day, Mean” value [2, 6] was 2.6, the “Feed intake a day, Mean” value [2, 7] was 2.7 and the “Feed intake a day, Mean” value [2, 8] was 2.4. The “Feed intake a day, Mean” value [2, 9] was 2.7, the “Feed intake a day, Mean” value [2, 10] was 2.3 and the “Feed intake a day, Mean” value [2, 11] was 2.5. The “Feed intake a day, Mean” value [2, 12] was 2.5, the “Feed intake a day, Mean” value [2, 13] was 2.8 and the “Feed intake a day, Mean” value [2, 14] was 2.4. The “Feed intake a day, Mean” value [2, 15] was 2.8, the “Feed intake a day, Mean” value [2, 16] was 2.6 and the “Feed intake a day, Mean” value [2, 17] was 3.0. The “Feed intake a day, Mean” value [2, 18] was 2.8, the “Feed intake a day, Mean” value [2, 19] was 2.9 and the “Feed intake a day, Mean” value [2, 20] was 3.1. For the same molecule, the “Feed intake a day, Mean” value [2, 21] was 3.3, the “Feed intake a day, Mean” value [2, 22] was 3.0 and the “Feed intake a day, Mean” value [2, 23] was 3.3. The “weight loss effect compared to the full-length GDF15 fusion polypeptide (in words)” value ([2]; 10 nmol/kg dose) was “a little excellent weight loss effect”, the “Feed intake a day, Mean” value [2, 24] was 3.1 and the “Feed intake a day, Mean” value [2, 25] was 1.5. For the same molecule, the “Feed intake a day, Mean” value [2, 26] was 2.3, the “Feed intake a day, Mean” value [2, 27] was 2.4 and the “Feed intake a day, Mean” value [2, 28] was 2.4. For the same molecule, the “Feed intake a day, Mean” value [2, 29] was 2.3, the “Feed intake a day, Mean” value [2, 30] was 2.3 and the “Feed intake a day, Mean” value [2, 31] was 2.0. The “Feed intake a day, Mean” value [2, 32] was 2.3, the “Feed intake a day, Mean” value [2, 33] was 2.4 and the “Feed intake a day, Mean” value [2, 34] was 2.1. For the same molecule, the “Feed intake a day, Mean” value [2, 35] was 2.5, the “Feed intake a day, Mean” value [2, 36] was 2.3 and the “Feed intake a day, Mean” value [2, 37] was 2.5. The “Feed intake a day, Mean” value [2, 38] was 2.6, the “Feed intake a day, Mean” value [2, 39] was 2.6 and the “Feed intake a day, Mean” value [2, 40] was 3.0. For the same molecule, the “Feed intake a day, Mean” value [2, 41] was 3.4, the “Feed intake a day, Mean” value [2, 42] was 3.3 and the “Feed intake a day, Mean” value [2, 43] was 3.1. The “duration for which diet suppression ability was maintained” value ([2]; 10 nmol/kg single administration) was “about 2 weeks”, the AUCextp ([3]; [(AUCinf − AUClast)/AUCinf]*100) was 18.2% and the AUClast ([3]; serum) was 2004 µg·h/mL. For the same molecule, the “Cmax (maximum blood concentration)” value ([3]; serum) was 9.73 µg/mL, the “Tmax (time to reach maximum blood concentration)” value ([3]; serum) was 48 h and the half-life ([3]; serum) was 114 h. For the same molecule, the “t1/2 (elimination half-life)” value ([3]; serum) was 114 h and the AUCinf ([3]; serum, extrapolated to infinite time) was 2593 µg·h/mL.
